Laboratory results reported in the supplement of paper PMC10369915.
The list shows a part of the results. No stated cut-off is given here; in the data, active = 3.2 or more and inactive = the rest. Most of these values are background signal.

B1: MTHFS_Y197_T202A (peptide)
chain: VDEVLYEDSSA
B2: MTM1_Y71_YF (peptide)
chain: TNFRLYLRSLE
B3: MTR_Y921_D919G (peptide)
chain: IRQGHYESLKE
B4: MTM1_Y71_R69C (peptide)
chain: TNYCLYLRSLE
B5: MTM1_Y71_R69C_YF (peptide)
chain: TNFCLYLRSLE
B6: MVD_Y131_YF (peptide)
chain: SSAAGYACLAF
B7: MTM1_Y277_A279G (peptide)
chain: SKLTIYDGRPS
B8: MTOR_Y1804 (peptide)
chain: EAVLHYKHQNQ
B9: MTM1_Y260 (peptide)
chain: KDDEKYLDVIR
B10: MVD_Y164_R161Q (peptide)
chain: ACQSLYGGFVE
B11: MUC13_Y501 (peptide)
chain: QMQNPYSRHSS
B12: MTR_Y921_H920D (peptide)
chain: IRQDDYESLKE
B13: MTM1_Y71_L70F_YF (peptide)
chain: TNFRFYLRSLE
B14: MTUS1_Y151 (peptide)
chain: LNCAGYCDALE
B15: MTM1_Y71_R69P (peptide)
chain: TNYPLYLRSLE
B16: MTM1_Y71_L70F (peptide)
chain: TNYRFYLRSLE
B17: MUSK_Y577_I575T (peptide)
chain: RNNTEYVRDIG
B18: MVD_Y276_N278H (peptide)
chain: FPPISYLHAIS
B19: MTM1_Y71 (peptide)
chain: TNYRLYLRSLE

target: SHP2 C-SH2 domain E139D; test: enrichment score (SH2-bound / input frequency) (ratio); bacterial display of known human phosphotyrosine sites (pTyr-Var adds point mutants) read by sequencing; higher = stronger binding; tyrosines were phosphorylated by kinases first; conditions: peptide library: pTyr-Var
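Further: displayed peptides selected on beads carrying the immobilized SH2 domain, with library peptides lacking any tyrosine serving as negative controls.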

Row | Binder | enrichment score
1 | B1 | inactive: 0.546
2 | B2 | inactive: 1.6
3 | B3 | inactive: 0.695
4 | B4 | inactive: 1.1
5 | B5 | inactive: 1.33
6 | B6 | inactive: 1.39
7 | B7 | inactive: 0.821
8 | B8 | inactive: 1.16
9 | B9 | inactive: 0.694
10 | B10 | inactive: 1.28
11 | B11 | inactive: 0.659
12 | B12 | inactive: 0.775
13 | B13 | inactive: 0.805
14 | B14 | inactive: 1.82
15 | B15 | inactive: 1.07
16 | B16 | inactive: 0.986
17 | B17 | inactive: 0.407
18 | B18 | inactive: 1.16
19 | B19 | inactive: 1.15

target: SHP2 C-SH2 domain wild-type; test: as above; conditions: peptide library: pTyr-Var

Row | Binder | enrichment score
20 | B1 | inactive: 0.683
21 | B2 | inactive: 1.51
22 | B3 | inactive: 0.792
23 | B4 | inactive: 1.48
24 | B5 | inactive: 1.41
25 | B6 | inactive: 2.68
26 | B7 | inactive: 0.798
27 | B8 | inactive: 1.11
28 | B9 | inactive: 0.676
29 | B10 | inactive: 0.896
30 | B11 | inactive: 0.716
31 | B12 | inactive: 0.585
32 | B13 | inactive: 0.889
33 | B14 | inactive: 1.66
34 | B15 | inactive: 1.04
35 | B16 | inactive: 0.894
36 | B17 | inactive: 0.46
37 | B18 | inactive: 0.956
38 | B19 | inactive: 1.22

target: SHP2 N-SH2 domain L43F; test: as above; conditions: peptide library: pTyr-Var

Row | Binder | enrichment score
39 | B1 | inactive: 0.486
40 | B2 | inactive: 1.7
41 | B3 | inactive: 0.717
42 | B4 | inactive: 1.1
43 | B5 | inactive: 1.23
44 | B6 | active: 3.3
45 | B7 | inactive: 0.685
46 | B8 | inactive: 1.14
47 | B9 | inactive: 0.679
48 | B10 | inactive: 0.941
49 | B11 | inactive: 0.771
50 | B12 | inactive: 0.709
51 | B13 | inactive: 0.947
52 | B14 | inactive: 1.77
53 | B15 | inactive: 1.34
54 | B16 | inactive: 0.839
55 | B17 | inactive: 0.525
56 | B18 | inactive: 0.959
57 | B19 | inactive: 1.13

target: SHP2 N-SH2 domain T42A; test: as above; conditions: peptide library: pTyr-Var

Row | Binder | enrichment score
58 | B1 | inactive: 0.483
59 | B2 | inactive: 1.43
60 | B3 | inactive: 0.664
61 | B4 | inactive: 1.1
62 | B5 | inactive: 0.868
63 | B6 | active: 8.04
64 | B7 | inactive: 0.73
65 | B8 | inactive: 1.04
66 | B9 | inactive: 0.724
67 | B10 | inactive: 0.846
68 | B11 | inactive: 0.451
69 | B12 | inactive: 0.732
70 | B13 | inactive: 0.871
71 | B14 | inactive: 1.39
72 | B15 | inactive: 0.778
73 | B16 | inactive: 0.89
74 | B17 | inactive: 0.473
75 | B18 | inactive: 1.28
76 | B19 | inactive: 0.905

target: SHP2 N-SH2 domain T52S; test: as above; conditions: peptide library: pTyr-Var

Row | Binder | enrichment score
77 | B1 | inactive: 0.589
78 | B2 | inactive: 1.31
79 | B3 | inactive: 0.596
80 | B4 | inactive: 1.26
81 | B5 | inactive: 1.15
82 | B6 | active: 3.29
83 | B7 | inactive: 0.812
84 | B8 | inactive: 0.99
85 | B9 | inactive: 0.769
86 | B10 | inactive: 0.904
87 | B11 | inactive: 0.909
88 | B12 | inactive: 0.643
89 | B13 | inactive: 0.8
90 | B14 | inactive: 1.9
91 | B15 | inactive: 0.883
92 | B16 | inactive: 0.938
93 | B17 | inactive: 0.457
94 | B18 | inactive: 1.02
95 | B19 | inactive: 1.12

target: SHP2 N-SH2 domain wild-type; test: as above; conditions: peptide library: pTyr-Var

Row | Binder | enrichment score
96 | B1 | inactive: 0.839
97 | B2 | inactive: 1.56
98 | B3 | inactive: 0.84
99 | B4 | inactive: 1.43
100 | B5 | inactive: 1.59
101 | B6 | inactive: 2.17
102 | B7 | inactive: 0.853
103 | B8 | inactive: 0.955
104 | B9 | inactive: 0.769
105 | B10 | inactive: 0.875
106 | B11 | inactive: 1.03
107 | B12 | inactive: 0.67
108 | B13 | inactive: 1.1
109 | B14 | inactive: 1.85
110 | B15 | inactive: 1.04
111 | B16 | inactive: 1.02
112 | B17 | inactive: 0.562
113 | B18 | inactive: 1
114 | B19 | inactive: 0.98
